{
  "source": "PubChem BioAssay AID1745849",
  "about": "(National Center for Advancing Translational Sciences (NCATS), 2022)",
  "note": "Among all 2,100 compounds or so, about 320 (15%) were called active. The inconclusive results got no clear call from the source; some entries with a clear call stand among them for comparison. The call rests on the fitted dose curve; in most records, active means well fitted cell-killing curve with a large enough effect; inconclusive means small, poorly fitted or top-dose-only effect, or effect the other way; inactive means flat fitted curve, though single readings scatter. Where the call is inconclusive, the potency comes from a doubtful curve fit. Potency means the concentration at half of the fitted maximal effect; tags describe the fitted curve by direction and shape.",
  "data": [
    {"assay": "Viability Counterscreen for CMV-Luciferase Assay of Inhibitors of ATXN expression; further: nearly all actives have a fitted effect of over 55% in size", "details": "HEK-293 CMV-luciferase cells viability, protease fluorescence, 24 h", "in_short": "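Compounds are tested in a dilution series on HEK-293 cells carrying the CMV-driven luciferase. After a 24 hr incubation, a protease substrate (25 uM final, 30 min) gives the viability fluorescence, and SteadyGlo gives the reporter luminescence.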", "values": [
      {"smiles": "O=C(Nc1cccc(S(=O)(=O)N2CCOCC2)c1)c1ccc2c(=O)n3c(nc2c1)CCCCC3", "Potency": "inactive"},
      {"smiles": "O=C(NN=Cc1ccccc1O)c1cccc([N+](=O)[O-])c1", "Potency": "inconclusive: 3.98 µM [cytotoxic, full curve, poor fit]"},
      {"smiles": "Cc1ccc(F)cc1-c1cc2nc(NCCCN(C)C)n(C)c(=O)c2s1", "Potency": "inactive"},
      {"smiles": "CS(=O)(=O)Nc1ccccc1C(=O)Nc1cc(Cl)cc(Cl)c1", "Potency": "inactive"},
      {"smiles": "Cc1cc(NCc2ccccn2)n2nc(C)c(-c3ccc(Cl)cc3)c2n1", "Potency": "active: 20 µM"},
      {"smiles": "O=C(CSc1nc2ncc(Br)cc2[nH]1)Nc1ccccc1-c1ccccc1", "Potency": "inactive"},
      {"smiles": "c1ccc(CN=C(NCc2ccccc2)NCc2ccccc2)cc1", "Potency": "inconclusive: 28.2 µM [cytotoxic, single point]"},
      {"smiles": "CC1(C(=O)Nc2cnc3ccccc3c2)CCN1C(=O)c1ccccc1CCc1ccccc1", "note": "(configuration not stated)", "Potency": "inconclusive: 25.1 µM [cytotoxic, partial curve, poor fit]"},
      {"smiles": "CCN1CCN(CCCNC(=O)c2ccc(/C=C3/Sc4ccccc4N(Cc4ccccc4F)C3=O)cc2)CC1", "Potency": "inconclusive: 31.6 µM [rising, single point]"},
      {"smiles": "CC(=O)Nc1ccc(N(CC(O)Cn2c3ccccc3c3ccccc32)S(=O)(=O)c2ccc(C)cc2)cc1", "note": "(configuration not stated)", "Potency": "inconclusive: 14.1 µM [cytotoxic, partial curve]"},
      {"smiles": "Cc1cc(NC(=O)CSc2nccn2-c2cccc(C)c2C)no1", "Potency": "inactive"},
      {"smiles": "O=C(NNC(=O)C(c1ccccc1)c1ccccc1)c1ccccn1", "Potency": "active: 10 µM"},
      {"smiles": "CCOC(=O)N1CCN(S(=O)(=O)c2ccc(C(=O)NNc3nc4c(C)cc(C)cc4s3)cc2)CC1", "Potency": "active: 1.58 µM"},
      {"smiles": "NC(Cc1ccccc1)c1csc(Nc2ccc(C(F)(F)F)cn2)n1", "note": "(configuration not stated)", "Potency": "inconclusive: 39.8 µM [cytotoxic, single point]"},
      {"smiles": "CN(Cc1ccccc1)C(=O)c1ccc(Nc2nc(C(N)Cc3ccccc3)cs2)nc1", "note": "(configuration not stated)", "Potency": "active: 10 µM"},
      {"smiles": "CCC(=O)NC(c1ccco1)c1cc(Cl)c2cccnc2c1O", "note": "(configuration not stated)", "Potency": "inactive"},
      {"smiles": "CC(C)(C)c1cc(C(=O)NNc2cc(C(F)(F)F)ccc2Cl)n(Cc2ccccc2)n1", "Potency": "inconclusive: 39.8 µM [cytotoxic, single point]"},
      {"smiles": "Cc1cccc2sc(NNC(=O)c3ccc(S(=O)(=O)N4CCCC(C)C4)cc3)nc12", "note": "(configuration not stated)", "Potency": "inconclusive: 3.98 µM [cytotoxic, single point]"},
      {"smiles": "CC1CCCCN1C(=O)C1CCN(c2nc(-c3ccccc3)nc3c2CCC3)CC1", "note": "(configuration not stated)", "Potency": "inconclusive: 39.8 µM [cytotoxic, single point]"},
      {"smiles": "COC1=CC(=O)C=C(OC)C1(O)CC(C)=O", "Potency": "inconclusive: 31.6 µM [rising, partial curve]"},
      {"smiles": "C=CCc1cccc(/C=N/NC(=O)CCCNc2ccc(C)cc2)c1O", "Potency": "active: 20 µM"},
      {"smiles": "COCOCCn1cc(CN2CCS(=O)(=O)N(Cc3ccc(-c4ccc(OC)cc4)cc3)C(CC(C)C)C2=O)nn1", "note": "(configuration not stated)", "Potency": "inconclusive: 39.8 µM [cytotoxic, single point]"},
      {"smiles": "O=C(CC1NCCc2ccccc21)Nc1ccc(Cl)cc1", "note": "(configuration not stated)", "Potency": "inactive"},
      {"smiles": "Cc1ccc(C(=O)NC(C)CCc2ccccc2)cc1S(=O)(=O)N1CCOCC1", "note": "(configuration not stated)", "Potency": "inconclusive: 25.1 µM [cytotoxic, single point]"},
      {"smiles": "O=C(Nc1nc(-c2ccccc2)cs1)c1ccccc1NS(=O)(=O)c1ccc(F)cc1", "Potency": "active: 3.16 µM"},
      {"smiles": "O=C(NNc1nc2ccc(Cl)cc2s1)c1cc(-c2cccs2)nc2ccccc12", "Potency": "inactive"},
      {"smiles": "COc1ccc(NC(C)C(=O)N/N=C/c2c(O)ccc3ccccc23)cc1", "note": "(configuration not stated)", "Potency": "active: 8.91 µM"},
      {"smiles": "Cc1ccc(S(=O)(=O)Nc2cccc3cccnc23)c([N+](=O)[O-])c1", "Potency": "inconclusive: 11.2 µM [cytotoxic, partial curve, poor fit]"},
      {"smiles": "CN1CCN(c2ccc(S(=O)(=O)N3CCCCC3)cc2NC(=O)/C=C/c2ccc(Cl)c([N+](=O)[O-])c2)CC1", "Potency": "inconclusive: 2.82 µM [cytotoxic, single point]"},
      {"smiles": "CC1=CC(C)(C)Nc2ccc(OC(=O)CN3C(=O)CCC3=O)cc21", "Potency": "inconclusive: 3.98 µM [rising, partial curve]"},
      {"smiles": "O=C(CNc1ccccc1)N/N=C/c1c(O)ccc2ccccc12", "Potency": "inconclusive: 0.631 µM [cytotoxic, full curve, poor fit]"},
      {"smiles": "COC(=O)c1ccsc1NC(=O)CN1CCN(Cc2ccc3c(c2)OCO3)CC1", "Potency": "inactive"},
      {"smiles": "CCN(CC)S(=O)(=O)c1cccc(C(=O)N/N=C(\\C)c2ccc(O)cc2O)c1", "Potency": "inconclusive: 39.8 µM [rising, single point]"},
      {"smiles": "CN(C)S(=O)(=O)c1cccc(N2C(=O)CC3(CCCCC3)CC2=O)c1", "Potency": "inactive"},
      {"smiles": "Cc1c(C(=O)Nc2ccc(-c3nnc4n3CCCCC4)cc2)oc2c1ccc1ccccc12", "Potency": "inconclusive: 4.47 µM [cytotoxic, single point]"},
      {"smiles": "C=CCn1c(COc2ccccc2)nnc1SC(C)C(=O)N/N=C/c1cc(Cl)ccc1O", "note": "(configuration not stated)", "Potency": "inconclusive: 6.31 µM [cytotoxic, full curve, poor fit]"},
      {"smiles": "Fc1ccc(Nc2nnc(C(F)(F)F)s2)cc1Cl", "Potency": "active: 28.2 µM"},
      {"smiles": "COc1ccc(NS(=O)(=O)c2ccc(NC(=O)c3ccc(CN4CCOCC4)cc3)cc2)cc1", "Potency": "inactive"},
      {"smiles": "Cc1cc(=O)[nH]c(N=N/C(=N/Nc2ccccc2C)c2ccccc2)n1", "Potency": "inconclusive: 11.2 µM [cytotoxic, partial curve, poor fit]"},
      {"smiles": "Cc1cc(C(=O)CN2C(=O)c3ccccc3S2(=O)=O)c(C)n1C(C)C", "Potency": "inactive"},
      {"smiles": "O=C(Nc1ccc(N2CCN(C(=O)c3ccco3)CC2)c(Cl)c1)c1cccs1", "Potency": "active: 28.2 µM"},
      {"smiles": "Cc1cc(Cl)ccc1OCCCC(=O)NNC(=O)c1ccccc1O", "Potency": "inconclusive: 1.58 µM [cytotoxic, partial curve, poor fit]"},
      {"smiles": "Cc1cc(C(=O)N/N=C/c2ccc([N+](=O)[O-])s2)n[nH]1", "Potency": "inconclusive: 20 µM [cytotoxic, single point]"},
      {"smiles": "Cc1ccc(C)c(S(=O)(=O)N2CCN(c3ncnc4sccc34)CC2)c1", "Potency": "inactive"},
      {"smiles": "CC(O)(c1ccccc1)c1nc(-c2ccncc2)cs1", "note": "(configuration not stated)", "Potency": "inactive"},
      {"smiles": "S=C(NCCCN1CCOCC1)N1CCN(c2nc(-c3ccccc3)cs2)CC1", "Potency": "inactive"},
      {"smiles": "Cn1c(CO)cnc1SCC(=O)c1ccc(Br)cc1", "Potency": "inconclusive: 17.8 µM [cytotoxic, partial curve]"},
      {"smiles": "CC(Nc1ccccc1CO)C(=O)Nc1cccc(Cl)c1Cl", "note": "(configuration not stated)", "Potency": "inactive"},
      {"smiles": "CCCCCC(=O)N/N=C(\\C)c1ccccn1", "Potency": "inactive"},
      {"smiles": "O=[N+]([O-])c1ccccc1S(=O)(=O)Nc1cccc2cccnc12", "Potency": "active: 11.2 µM"},
      {"smiles": "Cc1nn(C)c(C)c1NC(=O)CSc1nc(Cc2ccccc2)nc2c1cnn2-c1ccccc1", "Potency": "inactive"},
      {"smiles": "CC1CCCN(c2ncnc3c2cnn3-c2ccc(Cl)cc2)C1", "note": "(configuration not stated)", "Potency": "inconclusive: 3.16 µM [rising, partial curve, poor fit]"},
      {"smiles": "CCOC(=O)c1ccccc1NC(=O)CSc1nc2ccccc2c(=O)n1CCCN1CCOCC1", "Potency": "inconclusive: 28.2 µM [cytotoxic, single point]"},
      {"smiles": "OCCNc1c2ccccc2nc2c(F)c(F)c(F)c(F)c12", "Potency": "inconclusive: 28.2 µM [rising, partial curve]"},
      {"smiles": "Cc1onc(-c2c(F)cccc2Cl)c1C(=O)Nc1nnc(C(F)(F)F)s1", "Potency": "inactive"},
      {"smiles": "COc1ccc(/C=N/NC(=O)c2nc(-c3ccccc3)n(-c3ccccc3)n2)c(O)c1", "Potency": "inconclusive: 3.55 µM [cytotoxic, single point]"},
      {"smiles": "O=C(Nc1ccc(Cc2ccncc2)cc1)c1ccc(S(=O)(=O)N2CCCC2)cc1", "Potency": "inactive"},
      {"smiles": "N#C/C(=C\\c1ccc([N+](=O)[O-])o1)c1nc2ccccc2[nH]1", "Potency": "inconclusive: 39.8 µM [rising, single point]"},
      {"smiles": "Cc1cc(C)n2nc(C(=O)N/N=C/c3c4ccccc4cc4ccccc34)nc2n1", "Potency": "inconclusive: 31.6 µM [rising, partial curve]"},
      {"smiles": "Cc1c(Cl)cccc1NC(=O)N1CCCN(c2nc(-c3ccccc3)ns2)CC1", "Potency": "inconclusive: 12.6 µM [cytotoxic, partial curve, poor fit]"},
      {"smiles": "Cn1nnnc1Sc1ncnc2scc(-c3ccccc3Br)c12", "Potency": "inconclusive: 11.2 µM [cytotoxic, partial curve, poor fit]"},
      {"smiles": "COc1ccc(Cn2cc3c(-c4ccc(F)cc4)nnc-3c3cc(OC)c(OC)cc32)cc1", "Potency": "inconclusive: 2.82 µM [rising, partial curve]"},
      {"smiles": "O=C(COc1ccccc1)NCC(=O)N/N=C/c1ccc(O)cc1O", "Potency": "inconclusive: 14.1 µM [cytotoxic, partial curve, poor fit]"},
      {"smiles": "O=S(=O)(c1ccccc1)N1CCN(c2ccnc3cc(Cl)ccc23)CC1", "Potency": "inconclusive: 25.1 µM [cytotoxic, partial curve, poor fit]"},
      {"smiles": "O=C(CNC(=O)c1ccco1)N/N=C/c1cc(Br)ccc1O", "Potency": "inactive"},
      {"smiles": "CN(C)c1nc(N/N=C/c2c[nH]c3ccccc23)nc(N2CCOCC2)n1", "Potency": "inactive"},
      {"smiles": "Nc1c2ccccc2nc2ccccc12", "Potency": "inconclusive: 35.5 µM [rising, partial curve]"},
      {"smiles": "C[C@@H](CN1C2=NC[C@H](Cc3ccccc3)N2C[C@H]1Cc1ccc(O)cc1)NC(=O)CCC1CCCCC1", "Potency": "active: 17.8 µM"},
      {"smiles": "CCN(CC)CCNC(=O)c1ccc(NC(=O)c2ccc(Cl)c(S(=O)(=O)N3CCCCCC3)c2)cc1", "Potency": "inconclusive: 15.8 µM [cytotoxic, partial curve, poor fit]"},
      {"smiles": "COC(=O)c1ccc(Oc2nc(NC(C)C)nc(N(C)C)n2)cc1", "Potency": "inactive"},
      {"smiles": "CC(C)c1cccc(C(C)C)c1Nc1cn[nH]c1", "Potency": "inactive"},
      {"smiles": "Oc1[nH]c2ccc(Br)cc2c1N=NC(=S)N1CCOCC1", "Potency": "active: 1.12 µM"}
    ]}
  ]
}
